PubChem BioAssay AID1461 (National Center for Advancing Translational Sciences (NCATS), 2008)
Several values for one entry are separate records, joined by “and”; a condition that tells them apart may be missing. Equal values may be shown once. Among all 220,000 compounds or so, about 2,300 (1%) were called active. The inconclusive results got no clear call from the source; some entries with a clear call stand among them for comparison. Calls follow the shape of the dose curve; as a rule, active = well fitted inhibition curve with a large enough effect; inconclusive = small, poorly fitted or top-dose-only effect, or effect the other way; inactive = no such curve, though single readings can be large or run the other way. Potencies of inconclusive entries are left out as doubtful fits.
Also: nearly all actives have a fitted effect of over 50% in size.
Potency is read from the fitted curve at half-maximal effect; tags tell the direction and shape of the fitted curve.

The molecules below were run against Neuropeptide S receptor (Homo sapiens) (UniProt Q6W5P4) (assay: qHTS Assay for Antagonists of the Neuropeptide S Receptor: cAMP Signal Transduction). Conditions: CHO-NPSR cells, cAMP TR-FRET, antagonist mode; series mostly up to 38.3 µM.
Sequence of UniProt Q6W5P4 (Q6W5P4 whole entry, looked up): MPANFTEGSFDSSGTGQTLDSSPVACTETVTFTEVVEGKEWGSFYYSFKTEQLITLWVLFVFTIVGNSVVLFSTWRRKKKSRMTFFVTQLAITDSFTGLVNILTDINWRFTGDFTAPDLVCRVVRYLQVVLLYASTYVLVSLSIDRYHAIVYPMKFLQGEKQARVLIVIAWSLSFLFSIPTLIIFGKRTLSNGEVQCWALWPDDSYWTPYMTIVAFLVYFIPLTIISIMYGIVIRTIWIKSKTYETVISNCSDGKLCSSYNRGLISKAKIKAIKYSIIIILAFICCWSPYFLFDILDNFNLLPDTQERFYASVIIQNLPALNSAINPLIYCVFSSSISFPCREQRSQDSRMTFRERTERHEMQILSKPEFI
With `COCCOC(=O)c1c(NC(=O)CNC2CCCc3ccccc32)sc(C(N)=O)c1C` (stereo not given) the Potency was inconclusive [activator, partial curve]. For `Cc1ccc(-c2[nH]ncc2/C=C(\C#N)C(=O)NC2CCCCC2)cc1`, the Potency was inconclusive [inhibitor, partial curve]. With `CCCCC1=CC2=CC(=O)C(C)(OC(=O)CC)C(=O)C2=CN1C1CCCCC1` (stereo not given) the Potency was “inactive”. In the case of `COC(=O)CC1(C(=O)OC)Oc2ccc(Br)cc2C(=O)N1c1cc(Cl)c(Cl)cc1Cl` (stereo not given), the Potency is reported as inconclusive [activator, partial curve]. `Cc1cc(O)c(C(C)C)cc1N=Nc1ccccc1C(=O)O` was tested, and the Potency was inconclusive [inhibitor, single point]. In the case of `COC(=O)c1ccc(N2CCCCC2)c(N)c1`, the Potency is reported as inconclusive [inhibitor, single point]. For `Fc1cc(Br)ccc1NC(=S)Nc1ccccc1`, the Potency was “inactive”. `Cc1ccc2[nH]c(=O)c3cc(C(=O)N(C)Cc4ccco4)sc3c2c1` was tested, and the Potency was inconclusive [inhibitor, single point]. For `COc1ccc(-n2cccc2C=O)cc1`, the Potency was “inactive”. In the case of `CNS(=O)(=O)c1ccc2nc(NC(=O)/C=C/c3ccco3)sc2c1`, the Potency is reported as “inactive”. For `CCc1nnc(NC(=O)CSc2nc3c(cc2C#N)CCCC3)s1`, the Potency was inconclusive [inhibitor, single point]. For `COC(=O)Cn1c(=O)cnc2ccccc21`, the Potency was “inactive”. In the case of `COc1ccc2c(c1)[nH]c1c(N3CCSCC3)ncnc12`, the Potency is reported as inconclusive [activator, single point]. For `COc1ccccc1-c1nn2c(C(F)(F)F)nnc2s1`, the Potency was inconclusive [activator, partial curve, poor fit]. `O=C(c1cccs1)N1N=C(c2ccccc2)CC1c1ccccc1` (stereo not given) was tested, and the Potency was inconclusive [inhibitor, partial curve]. With `COc1ccc(C2(CNC(=O)c3ccc(OCC(C)C)cc3)CCOCC2)cc1` the Potency was “inactive”. With `Cc1nnc(NC(=O)C2CCCO2)s1` (stereo not given) the Potency was “inactive”. `CCC1(C(=O)O)NC(c2cc(OC)ccc2O)C2C(=O)N(Cc3ccccc3)C(=O)C21` (stereo not given) was tested, and the Potency was “inactive”. With `CCOC(=O)COc1ccc(Br)cc1/C=C\c1[nH]c(=O)[nH]c(=O)c1[N+](=O)[O-]` the Potency was “inactive”. For `COc1ccc(NS(=O)(=O)c2ccc(N3CCOCC3)c(NC(=O)c3ccc(OC)cc3)c2)cc1`, the Potency was “inactive”. `O=C(CN(C(=O)c1ccc(Cl)cc1)N1C(=O)C2CCCCC2C1=O)c1ccc(Cl)cc1` (stereo not given) was tested, and the Potency was inconclusive [inhibitor, single point]. For `COc1cc(O)c(C(CCN2CCN(c3ccccc3)CC2)c2ccc(N(C)C)cc2)c(OC)c1` (stereo not given), the Potency was “inactive”. With `Cc1cc(N2C(=O)C(O)=C(C(=O)c3ccc(C)o3)C2c2cccs2)no1` (stereo not given) the Potency was active: 7.94 µM. In the case of `Clc1ccc2oc(-c3cccnc3)nc2c1`, the Potency is reported as inconclusive [inhibitor, single point]. `CCCC(=O)Nc1ccc(-c2nc3cc(C)c(C)cc3o2)c(O)c1` was tested, and the Potency was inconclusive [inhibitor, single point]. In the case of `COc1ccccc1CNC(=O)COc1ccccc1OC`, the Potency is reported as inconclusive [inhibitor, single point]. With `CCN(CC)CCCNC(=O)c1cc2c(-c3ccc(Cl)cc3)nn(C)c2s1` the Potency was inconclusive [inhibitor, single point]. With `CCCC(C(=O)OCCN(CC)CC)(c1ccccc1)c1ccccc1` the Potency was inconclusive [inhibitor, partial curve]. For `O=C(Nc1ccc(S(=O)(=O)Nc2nccs2)cc1)c1cccc(N2C(=O)c3ccccc3C2=O)c1`, the Potency was “inactive”. In the case of `Cc1ccc2nc(C(F)OC(F)(F)F)[nH]c2c1` (stereo not given), the Potency is reported as inconclusive [activator, full curve, poor fit]. In the case of `CC(=O)C1=C(O)C(=O)N(Cc2cccnc2)C1c1ccccc1Cl` (stereo not given), the Potency is reported as inconclusive [inhibitor, partial curve]. For `O=C1CC(N(CCc2ccccc2)C(=S)Nc2ccccc2)C(=O)N1c1ccc(Br)cc1` (stereo not given), the Potency was inconclusive [inhibitor, partial curve]. In the case of `Clc1ccc2c(c1)CNc1c(ncnc1N1CCOCC1)O2`, the Potency is reported as inconclusive [inhibitor, partial curve]. In the case of `Cc1cccc(NC(=O)c2ccc(N3CCCCC3)c([N+](=O)[O-])c2)n1`, the Potency is reported as “inactive”. With `Nc1nc(Br)c2ccccc2c1-c1ccc(F)cc1` the Potency was inconclusive [inhibitor, single point]. In the case of `Cc1cccc(/C(N)=N/OC(=O)c2ccco2)c1`, the Potency is reported as “inactive”. For `COc1ccc(-c2oc(NC(=O)CCl)c(C#N)c2-c2ccc(OC)cc2)cc1`, the Potency was inconclusive [inhibitor, partial curve]. In the case of `O=C(CCC1N=C2c3ccccc3N=C(SCc3ccc(Cl)cc3)N2C1=O)NCc1ccco1` (stereo not given), the Potency is reported as inconclusive [inhibitor, single point]. In the case of `O=C(Cc1ccccc1)Nc1ccc(N2CCCCC2)cc1`, the Potency is reported as “inactive”. `S=c1[nH]nc(-c2cc3c(s2)-c2ccccc2CC3)o1` was tested, and the Potency was active: 10 µM. `Cc1cccc(C)c1NC(=O)/C(=C/c1ccco1)c1ccccc1` was tested, and the Potency was inconclusive [inhibitor, single point]. With `O=C(C1CCCCC1)N1CCN(S(=O)(=O)c2ccc(Cl)cc2)CC1` the Potency was inconclusive [inhibitor, partial curve, poor fit]. In the case of `COc1ccc(-n2c(=S)[nH]c3cc(C(=O)NCCCN4CCCC4=O)ccc3c2=O)cc1OC`, the Potency is reported as “inactive”. In the case of `O=C1c2cnc3nc(SCc4ccccc4)nn3c2CC2c3ccccc3CCN12` (stereo not given), the Potency is reported as inconclusive [inhibitor, partial curve]. With `CC(Oc1ccc(Cl)cc1Cl)c1nc(-c2ccc(NC(=O)c3cccnc3)cc2)no1` (stereo not given) the Potency was inconclusive [inhibitor, single point]. `O=C(CSc1nnc(-c2ccco2)n1-c1ccccc1)NCCc1ccccc1` was tested, and the Potency was inconclusive [inhibitor, partial curve]. In the case of `COc1ccc(C(c2c(O)ccc3ccccc23)N2CCOCC2)c(OC)c1` (stereo not given), the Potency is reported as inconclusive [inhibitor, partial curve]. For `COC(=O)c1ccc(NC(=O)c2sc3nc(-c4ccccc4)cn3c2C)cc1`, the Potency was inconclusive [inhibitor, partial curve]. In the case of `CN1CCN(c2nc(-c3ccccc3)nc(-c3ccccc3)c2C#N)CC1`, the Potency is reported as inconclusive [inhibitor, single point]. For `CCOC(=O)N1CCN(C(=O)c2ccc(OCC)c(OCC)c2)CC1`, the Potency was inconclusive [inhibitor, single point]. `CCOC(=O)c1c(NC(=O)CN(CC)CC)sc2c1CCN(C(=O)OCC)C2` was tested, and the Potency was inconclusive [inhibitor, partial curve]. For `Cc1cccc(C)c1Nc1nnc(SCc2cc([N+](=O)[O-])cc3c2OCOC3)s1`, the Potency was inconclusive [inhibitor, single point]. With `COc1ccc(Nc2nnc(SCC(=O)c3cc(C)n(CC4CCCO4)c3C)s2)cc1` (stereo not given) the Potency was “inactive”. `O=C(Cn1c(N2CCN(c3ccccc3)CC2)nc2ccccc21)c1ccccc1` was tested, and the Potency was inconclusive [inhibitor, single point]. In the case of `Clc1ccccc1C(c1ccccc1)(c1ccccc1)n1ccnc1`, the Potency is reported as active: 7.94 µM and active: 5.01 µM. For `COc1ccc(-c2nnc(N3CCCCC3)c3ccccc23)cc1`, the Potency was inconclusive [inhibitor, partial curve]. With `O=C(Nc1ccc(-c2cn3ccsc3n2)cc1)C1CCCC1` the Potency was inconclusive [inhibitor, partial curve, poor fit]. For `Cc1ccc(SCC(=O)N=C2NC(=O)CS2)cc1`, the Potency was “inactive”. `Cc1c(O)c(CN2CCCC2)cc2c3c(c(=O)oc12)CCC3` was tested, and the Potency was inconclusive [inhibitor, partial curve]. With `Nc1c(C(=O)Nc2ccccc2)c2nc3ccccc3nc2n1CCCN1CCOCC1` the Potency was inconclusive [inhibitor, single point]. `COC(=O)C1=C(C)NC2=C(C(=O)CC(C)(C)C2)C1c1cn(Cc2ccc(Br)cc2)nc1-c1ccccc1` (stereo not given) was tested, and the Potency was inconclusive [inhibitor, partial curve]. For `Cc1cc(NC(=O)c2ccccc2F)n(-c2nc3ccccc3[nH]2)n1`, the Potency was inconclusive [inhibitor, partial curve, poor fit]. `Cc1oc2cc(O)cc(C)c2c(=O)c1-c1cnn(-c2ccccc2)c1` was tested, and the Potency was inconclusive [inhibitor, partial curve, poor fit]. For `O=C(NCCOc1ccc(F)cc1)c1ccccc1SCc1ccccc1`, the Potency was inconclusive [inhibitor, single point]. In the case of `Cc1ccc(S(=O)(=O)N/N=C\c2cn(-c3ccccc3)nc2-c2ccccc2)cc1`, the Potency is reported as inconclusive [inhibitor, single point]. In the case of `NNC(=O)CN1C(c2ccccc2Br)=Nc2ccc(Br)cc2C1c1ccccc1` (stereo not given), the Potency is reported as inconclusive [inhibitor, partial curve]. With `O=C(Oc1ccc(C(=S)N2CCOCC2)cc1Br)c1ccccc1F` the Potency was “inactive”. With `COc1ccccc1NC(=O)c1sc2ncn(Cc3cccc(C)c3)c(=O)c2c1C` the Potency was inconclusive [inhibitor, single point]. In the case of `CCC(Cc1ccccc1)NC(=O)C1CCC(CNc2c(N3CCCC3)c(=O)c2=O)CC1` (stereo not given), the Potency is reported as “inactive”. With `CCOC(=O)c1ccc(Nc2nc(-c3cccnc3)nc3ccccc23)cc1` the Potency was inconclusive [inhibitor, single point].
